# Results as given in the supplement of paper PMC8728848.
# The other results are listed elsewhere or left out.
# B1: Epa1-NP-mutant-Y228W (Candida glabrata), Q6VBJ0 (protein)
# chain: MILNPALFLNKCVCIYTTLILLLLTNGGYATSSNDISLASKDPTTFPLGCSPDITTPKKGLSMELYSYDFRKKGSYPCWDAAYLDPNYPRTGYKSHRLLAKVDGVTGNINFYYHATKGCTPQLGHLPASYNYPKPLTMTNFTMLLYGYFRPKVTGFHTFTISADDLLFVNFGAGNAFDCCRRDSSADHFGNYQAYAIWGSKTAKDELTVHLDAGVYYPIRLFYNNREWDGALSFTFKTESNENTVSDFSEYFFSLDDTEEGCPGLISYDSSCASVKTSKIIGIDYHTETPNENLVPITKTIYHLGIPCTGTTTTPLCGSGFYDPLANKCVTINTSSTSSVTKTTSHTTSKEVSFHSSISSQKTLIPKSIPSPYGPIKSQSIPTEMETSSEISSSEYAFSDVISTPSHSPYTKKHSSLNSSSYTSTVIHSLTSYSISQGIFSTSLSEQNITSKSSTDKFSTATSMSNNITQSSIIISQFSTNNENYTTTSMHTSSDKISTETLNNSISTTTSILFSNSSTILKNNTTIISSDKDTHYHPVNPTIVCSTNKTEIICASITQPSISNSNNHWSSSVLKFNSTTVRSTLPSSAGSNETSINVPFSSSTESNTSTSSTSTSNSKMVRSTLPSSAGSNETSISVPFSSSTESNTSTSSTSTSNSKMVRSTLPSSAGSNETSINVPFSSSTESNTSTSSTSTSNSKTVRSTPFSSAGIIMTSLSQRNNKSASSYASSNSKCYNTADSCRKVHSTPSYLLTSSYTSEGVDYDCSLVSTKLKINDTNCVNNKHTTKSCLKTSVTTTIPTLEIKTARKSSSNTIGLHSYPTSSPNKSISSAPIIGYISSFKTIKTASPSYQTSDLTTITTITSLNNPGSTAVENTHESNDKSRKTSSNDISSKHSVIKETKDAVESSNKSHQTNTLKCSSIIIASSSHNSYESLGGTTLTLTLSKVYSPQNNDTLPFLEISEVNPSRTVLPESSKMMQYLTSTEERNKTARNTIATNIVSISTFHFEGEGNAIRMGYTQLLLMLIGIIVMNIGT
# Key:
# Experiment in all cases: glycan array binding signal (z-score within array); higher = stronger binding
# Conditions in all cases: glycan notation: IUPAC condensed, linker removed; mutation: Y228W
# [1] = biological target: Gal(b1-4)GlcNAc(b1-3)Gal(b1-4)GlcNAc(b1-2)Man(a1-3)[Gal(b1-4)GlcNAc(b1-3)Gal(b1-4)GlcNAc(b1-2)Man(a1-6)]Man(b1-4)GlcNAc(b1-4)[Fuc(a1-6)]GlcNAc
# In short: (§1)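 Glycan array data came from 3228 arrays in the Consortium for Functional Glycomics database, and only arrays with an available protein sequence were kept. Glycan names were put into IUPAC-condensed notation, and columns mapping to the same glycan were averaged. The binding signal is a within-array Z-score, averaged across arrays of one protein sequence run at different concentrations or buffers and across linkers. A negative Z-score can be read as non-binding.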
# [2] = biological target: Gal(b1-4)GlcNAc(b1-3)Gal(b1-4)GlcNAc(b1-2)[Gal(b1-4)GlcNAc(b1-3)Gal(b1-4)GlcNAc(b1-6)]Man(a1-6)[Gal(b1-4)GlcNAc(b1-3)Gal(b1-4)GlcNAc(b1-2)Man(a1-3)]Man(b1-4)GlcNAc(b1-4)GlcNAc
# In short: as §1
# [3] = biological target: Gal(b1-4)GlcNAc(b1-3)Gal(b1-4)GlcNAc(b1-2)[Gal(b1-4)GlcNAc(b1-3)Gal(b1-4)GlcNAc(b1-6)]Man(a1-6)[Gal(b1-4)GlcNAc(b1-3)Gal(b1-4)GlcNAc(b1-2)Man(a1-3)]Man(b1-4)GlcNAc(b1-4)[Fuc(a1-6)]GlcNAc
# In short: as §1
# [4] = biological target: Gal(b1-4)GlcNAc(b1-3)Gal(b1-4)GlcNAc(b1-3)Gal(b1-4)GlcNAc
# In short: as §1
# [5] = biological target: Gal(b1-4)GlcNAc(b1-3)Gal(b1-4)GlcNAc(b1-3)Gal(b1-4)GlcNAc(b1-2)Man(a1-3)[Gal(b1-4)GlcNAc(b1-3)Gal(b1-4)GlcNAc(b1-3)Gal(b1-4)GlcNAc(b1-2)Man(a1-6)]Man(b1-4)GlcNAc(b1-4)GlcNAc
# In short: as §1
# [6] = biological target: Gal(b1-4)GlcNAc(b1-3)Gal(b1-4)GlcNAc(b1-3)Gal(b1-4)GlcNAc(b1-2)Man(a1-3)[Gal(b1-4)GlcNAc(b1-3)Gal(b1-4)GlcNAc(b1-3)Gal(b1-4)GlcNAc(b1-2)Man(a1-6)]Man(b1-4)GlcNAc(b1-4)[Fuc(a1-6)]GlcNAc
# In short: as §1
# [7] = biological target: Gal(b1-4)GlcNAc(b1-3)Gal(b1-4)GlcNAc(b1-3)Gal(b1-4)GlcNAc(b1-2)[Gal(b1-4)GlcNAc(b1-3)Gal(b1-4)GlcNAc(b1-3)Gal(b1-4)GlcNAc(b1-6)]Man(a1-6)[Gal(b1-4)GlcNAc(b1-3)Gal(b1-4)GlcNAc(b1-3)Gal(b1-4)GlcNAc(b1-2)Man(a1-3)]Man(b1-4)GlcNAc(b1-4)[Fuc(a1-6)]GlcNAc
# In short: as §1
# [8] = biological target: Gal(b1-4)GlcNAc(b1-3)Gal(b1-4)GlcNAc(b1-3)Gal(b1-4)GlcNAc(b1-3)Gal(b1-4)GlcNAc(b1-2)Man(a1-3)[Gal(b1-4)GlcNAc(b1-3)Gal(b1-4)GlcNAc(b1-3)Gal(b1-4)GlcNAc(b1-3)Gal(b1-4)GlcNAc(b1-2)Man(a1-6)]Man(b1-4)GlcNAc(b1-4)GlcNAc
# In short: as §1
# [9] = biological target: Gal(b1-4)GlcNAc(b1-3)Gal(b1-4)GlcNAc(b1-3)Gal(b1-4)GlcNAc(b1-3)Gal(b1-4)GlcNAc(b1-2)Man(a1-3)[Gal(b1-4)GlcNAc(b1-3)Gal(b1-4)GlcNAc(b1-3)Gal(b1-4)GlcNAc(b1-3)Gal(b1-4)GlcNAc(b1-2)Man(a1-6)]Man(b1-4)GlcNAc(b1-4)[Fuc(a1-6)]GlcNAc
# In short: as §1
# [10] = biological target: Gal(b1-4)GlcNAc(b1-3)Gal(b1-4)GlcNAc(b1-3)Gal(b1-4)GlcNAc(b1-3)Gal(b1-4)GlcNAc(b1-2)[Gal(b1-4)GlcNAc(b1-3)Gal(b1-4)GlcNAc(b1-3)Gal(b1-4)GlcNAc(b1-3)Gal(b1-4)GlcNAc(b1-6)]Man(a1-6)[Gal(b1-4)GlcNAc(b1-3)Gal(b1-4)GlcNAc(b1-3)Gal(b1-4)GlcNAc(b1-3)Gal(b1-4)GlcNAc(b1-2)Man(a1-3)]Man(b1-4)GlcNAc(b1-4)[Fuc(a1-6)]GlcNAc
# In short: as §1
# [11] = biological target: Gal(b1-4)GlcNAc(b1-3)Gal(b1-4)GlcNAc(b1-3)Gal(b1-4)GlcNAc(b1-3)Gal(b1-4)GlcNAc(b1-3)Gal(b1-4)GlcNAc(b1-2)Man(a1-3)[Gal(b1-4)GlcNAc(b1-3)Gal(b1-4)GlcNAc(b1-3)Gal(b1-4)GlcNAc(b1-3)Gal(b1-4)GlcNAc(b1-3)Gal(b1-4)GlcNAc(b1-2)Man(a1-6)]Man(b1-4)GlcNAc(b1-4)GlcNAc
# In short: as §1
# [12] = biological target: Gal(b1-4)GlcNAc(b1-3)Gal(b1-4)GlcNAc(b1-3)Gal(b1-4)GlcNAc(b1-3)Gal(b1-4)GlcNAc(b1-3)Gal(b1-4)GlcNAc(b1-2)Man(a1-3)[Gal(b1-4)GlcNAc(b1-3)Gal(b1-4)GlcNAc(b1-3)Gal(b1-4)GlcNAc(b1-3)Gal(b1-4)GlcNAc(b1-3)Gal(b1-4)GlcNAc(b1-2)Man(a1-6)]Man(b1-4)GlcNAc(b1-4)[Fuc(a1-6)]GlcNAc
# In short: as §1
# [13] = biological target: Gal(b1-4)GlcNAc(b1-3)Gal(b1-4)GlcNAc(b1-3)Gal(b1-4)GlcNAc(b1-3)Gal(b1-4)GlcNAc(b1-3)Gal(b1-4)GlcNAc(b1-2)[Gal(b1-4)GlcNAc(b1-3)Gal(b1-4)GlcNAc(b1-3)Gal(b1-4)GlcNAc(b1-3)Gal(b1-4)GlcNAc(b1-3)Gal(b1-4)GlcNAc(b1-6)]Man(a1-6)[Gal(b1-4)GlcNAc(b1-3)Gal(b1-4)GlcNAc(b1-3)Gal(b1-4)GlcNAc(b1-3)Gal(b1-4)GlcNAc(b1-3)Gal(b1-4)GlcNAc(b1-2)Man(a1-3)]Man(b1-4)GlcNAc(b1-4)[Fuc(a1-6)]GlcNAc
# In short: as §1
# [14] = biological target: Gal(b1-4)GlcNAc(b1-3)Gal(b1-4)GlcNAc(b1-3)Gal(b1-4)GlcNAc(b1-3)Gal(b1-4)GlcNAc(b1-3)Gal(b1-4)GlcNAc(b1-3)Gal(b1-4)GlcNAc(b1-2)Man(a1-3)[Gal(b1-4)GlcNAc(b1-3)Gal(b1-4)GlcNAc(b1-3)Gal(b1-4)GlcNAc(b1-3)Gal(b1-4)GlcNAc(b1-3)Gal(b1-4)GlcNAc(b1-3)Gal(b1-4)GlcNAc(b1-2)Man(a1-6)]Man(b1-4)GlcNAc(b1-4)GlcNAc
# In short: as §1
# [15] = biological target: Gal(b1-4)GlcNAc(b1-3)Gal(b1-4)GlcNAc(b1-3)GalNAc
# In short: as §1
# [16] = biological target: Gal(b1-4)GlcNAc(b1-3)Gal(b1-4)GlcNAc(b1-3)[Gal(b1-4)GlcNAc(b1-3)Gal(b1-4)GlcNAc(b1-6)]GalNAc
# In short: as §1
# [17] = biological target: Gal(b1-4)GlcNAc(b1-3)Gal(b1-4)GlcNAc(b1-6)[Gal(b1-3)]GalNAc
# In short: as §1
# [18] = biological target: Gal(b1-4)GlcNAc(b1-3)Gal(b1-4)[Fuc(a1-3)]GlcNAc(b1-3)Gal(b1-4)[Fuc(a1-3)]GlcNAc
# In short: as §1
# [19] = biological target: Gal(b1-4)GlcNAc(b1-3)GalNAc
# In short: as §1
# [20] = biological target: Gal(b1-4)GlcNAc(b1-3)[Fuc(a1-3)GlcNAc(b1-6)]Gal(b1-4)Glc
# In short: as §1
# [21] = biological target: Gal(b1-4)GlcNAc(b1-3)[Gal(b1-4)GlcNAc(b1-6)]Gal(b1-4)GlcNAc
# In short: as §1
# [22] = biological target: Gal(b1-4)GlcNAc(b1-3)[GlcNAc(b1-6)]Gal(b1-4)GlcNAc
# In short: as §1
# [23] = biological target: Gal(b1-4)GlcNAc(b1-6)Gal(b1-4)GlcNAc
# In short: as §1
# [24] = biological target: Gal(b1-4)GlcNAc(b1-6)GalNAc
# In short: as §1
# [25] = biological target: Gal(b1-4)GlcNAc(b1-6)[Gal(b1-3)]GalNAc
# In short: as §1
# [26] = biological target: Gal(b1-4)GlcNAc(b1-6)[Gal(b1-4)GlcNAc(b1-3)]GalNAc
# In short: as §1
# Gal(b1-4)GlcNAc6P = biological target: Gal(b1-4)GlcNAc6P
# In short: as §1
# Gal(b1-6)Gal = biological target: Gal(b1-6)Gal
# In short: as §1
# Gal3S(b1-3)GalNAc = biological target: Gal3S(b1-3)GalNAc
# In short: as §1
# Gal3S(b1-3)GlcNAc = biological target: Gal3S(b1-3)GlcNAc
# In short: as §1
binder,measurement,setting,value
B1,glycan array binding signal (z-score),[1],0.511
same,glycan array binding signal (z-score),[2],1.45
same,glycan array binding signal (z-score),[3],2.98
same,glycan array binding signal (z-score),[4],-0.34
same,glycan array binding signal (z-score),[5],0.318
same,glycan array binding signal (z-score),[6],0.589
same,glycan array binding signal (z-score),[7],3.05
same,glycan array binding signal (z-score),[8],0.293
same,glycan array binding signal (z-score),[9],0.548
same,glycan array binding signal (z-score),[10],1.32
same,glycan array binding signal (z-score),[11],1.78
same,glycan array binding signal (z-score),[12],0.116
same,glycan array binding signal (z-score),[13],1.48
same,glycan array binding signal (z-score),[14],0.397
same,glycan array binding signal (z-score),[15],-0.018
same,glycan array binding signal (z-score),[16],0.421
same,glycan array binding signal (z-score),[17],0.576
same,glycan array binding signal (z-score),[18],-0.038
same,glycan array binding signal (z-score),[19],-0.208
same,glycan array binding signal (z-score),[20],-0.175
same,glycan array binding signal (z-score),[21],0.838
same,glycan array binding signal (z-score),[22],-0.35
same,glycan array binding signal (z-score),[23],1.66
same,glycan array binding signal (z-score),[24],0.665
same,glycan array binding signal (z-score),[25],2.77
same,glycan array binding signal (z-score),[26],0.784
same,glycan array binding signal (z-score),Gal(b1-4)GlcNAc6P,-0.271
same,glycan array binding signal (z-score),Gal(b1-6)Gal,0.055
same,glycan array binding signal (z-score),Gal3S(b1-3)GalNAc,-0.073
same,glycan array binding signal (z-score),Gal3S(b1-3)GlcNAc,-0.142
